Measurements: PubChem BioAssay AID1508623 (National Center for Advancing Translational Sciences (NCATS), 2021)
The whole screen tested about 48,000 compounds, of which about 450 (0.94%) were called active. About 19% were inconclusive and are not listed. Calls come from the whole dose curve; as a rule, active = well fitted inhibition curve with a large enough effect; inconclusive = small, poorly fitted or top-dose-only effect; inactive = no such curve, though single readings can be large or run the other way. Some of the results follow.

test: Primary qHTS for Identification of Small Molecule Inhibitors of Huntingtin Promoter Activity; details: HEK293 HTT promoter firefly luciferase reporter (activity 0% = vehicle and -100% = no light), 24 h; series mostly up to 57.5 µM; activity change, negative = inhibition: at the top concentration; note: nearly all actives have a fitted effect of over 50% in size
Method in brief: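 Firefly luciferase signal from promoter-reporter HEK293 cells was scaled between vehicle (0%) and zero RLU (-100%). Compounds were tested at final concentrations of up to 57.5 uM over 24 h at 37 degrees C. PTC124 at 50 uM final served as control inhibitor.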

Activity change, negative = inhibition, inactive:
O=C(CCc1ccccc1)N(Cc1cccnc1)c1nc2ccc(F)cc2s1 -13%, CCN(CC)C(=O)CSc1nc2c(c(=O)n(C)c(=O)n2C)n1Cc1ccccc1 14.4%, Cc1ccc2c(CNC3CCCC3)c(C(=O)O)n(Cc3ccc(F)cc3)c2c1 -14.1%, CN(C(=O)CSc1nc2ccccc2n1CC(=O)N(C)C1CCCCC1)c1ccccc1 -0.198%, Cc1cccc(NC(=O)CN2C(=O)CCn3nc(-c4cccn4C)cc32)c1C -2.9%, COc1cccc(NC(=O)Nc2ccc3nc(N4CCN(C)CC4)cc(C)c3c2)c1 8.92%, CCCCNC(=O)CCn1c(=O)c2ccccc2n(Cc2cccc(Cl)c2)c1=O -8.55%, O=C(CSc1nc2ccsc2c(=O)n1-c1ccc(Br)cc1)NCc1ccccc1 -15.3%, O=C(CSc1nnc2scc(-c3ccccc3)n12)Nc1ccc(Cl)cc1 -5.15%, CCOc1ccc(CNC(=O)CCn2c(=O)c3cccn3c3ccc(F)cc32)cc1 -8.24%, CCOC(=O)c1ccc(NC(=O)c2ccc(CN3C(=O)CCn4nc(C)cc43)cc2)cc1 -14%, O=C(NCc1nc2ccccc2[nH]1)c1cccc(Cl)c1 0%, O=C(Cn1c(=O)c2ccccc2n2nncc12)Nc1cccc(F)c1 -6.13%, COc1ccc(NC(=O)NCCn2nnc3cc(S(=O)(=O)N(C)C)ccc32)cc1 -17.8%, Cc1ccccc1Cn1cnc2nc3c(cc2c1=O)CC(C)CC3 (stereo unspecified) -10.2%, CCc1cccc(C)c1NC(=O)CCCn1nc(C)c2sc3ccccc3c2c1=O -0.933%, Cc1ccc(Cl)cc1NC(=O)CCn1c(=O)c2cccn2c2cccnc21 -0.308%, CCOc1ccc2nc(N3CCC(C(=O)Nc4cc(C)ccc4C)CC3)sc2c1 45.7%, Cc1ccc(NC(=O)Cn2cc3c(n2)CCCC3)c(C)c1 -11.4%, O=C(NC1CCCCC1)c1ccc(CSc2nc3ccncc3n2Cc2ccccc2F)cc1 -8.58%, COCCCNC(=O)c1ccc2c(c1)nc1n2CCCCC1 44.2%, CCN(CC)CCCNC(=O)CSc1nc(-c2ccc(OC)cc2)cc(C(F)(F)F)n1 -24%, O=C(CSCc1cnn(-c2ccccc2)c1-n1cccc1)NCc1ccc(F)cc1 -15.3%, Cc1noc(Cn2c(=O)c3cc4c(cc3n(CC(=O)Nc3ccccc3F)c2=O)OCO4)n1 -14.4%, CCOC(=O)C1CCC(CN(Cc2ccc(OC)cc2)S(=O)(=O)c2ccc(F)c(C(=O)Nc3cc(C)ccc3C)c2)CC1 (stereo unspecified) 13.4%, Cc1nc(N2CCCC2)c2c(C(=O)Nc3ccc(Br)cc3F)c(C)oc2n1 -17.3%, CCOc1ccc(NC(=O)c2ccc3snnc3c2)cc1 13.2%, CC(C)NC(=O)C1CCC(Cn2c(=O)c3sccc3n(CC(=O)Nc3ccccc3)c2=O)CC1 (stereo unspecified) -12.2%, COc1ccc(-c2csc3nc(-c4ccccc4)oc(=O)c23)cc1OC -4.42%, Cc1cccc(-c2nc(CSc3nncn4c3cc3sccc34)c(C)o2)c1 0.365%, FC(F)(F)c1cc(-c2cccc(Br)c2)nc2ncnn12 -10.8%, CCOC(=O)[C@H](CCc1ccccc1)N[C@@H](C)C(=O)N1C(=O)N(C)C[C@H]1C(=O)O -6.21%, CN1CCCN(C(c2ccccc2)c2ccc(Cl)cc2)CC1 (stereo unspecified) -3.82%, CCOc1ccc(NC(=O)c2ccc3c(SCC(=O)O)c4c(nc3c2)CCC4)cc1 -12.1%, C[C@@H]1C[C@H]2[C@@H]3CCC4=CC(=O)C=C[C@]4(C)[C@@]3(Cl)[C@@H](O)C[C@]2(C)[C@@]1(OC(=O)c1ccco1)C(=O)CCl -28.5%, CCOC(=O)c1cnc2c(cnn2CC)c1NN=C(C)C 2.83%, COc1ccccc1NC(=O)N1CCN(c2nnc(C)c3c(C)n(-c4ccc(Cl)cc4)nc23)CC1 -4.66%, CCOc1ccccc1NC(=O)COC(=O)c1cn(CC)c2nc(C)ccc2c1=O -26.5%, COc1cc(-c2nc3ccccn3c2Nc2ccccc2C)ccc1O -11.2%, O=C(Nc1cccc(C(F)(F)F)c1)N1CCC(CN2CCCCCC2)CC1 -9.7%, CC1CCc2c(sc(NC(=O)Cn3nnc(-c4ccc(C(F)(F)F)cc4)n3)c2C#N)C1 (stereo unspecified) -8.97%, CC1CCN(c2cc3c(cc2F)c(=O)c(S(=O)(=O)c2cccc(Cl)c2)cn3Cc2ccccc2)CC1 -8.41%, COc1ccc(C2=C(C(C)=O)Sc3nnc(-c4ccc(C)cc4)n3N2C(C)=O)cc1OC -19.1%, COc1ccc(NC(=O)C(=O)NCCc2sc(-c3ccc(Cl)cc3)nc2C)cc1 5.07%, COc1ccccc1CNc1ccc(-c2nc(-c3ccccn3)no2)cc1[N+](=O)[O-] 22.7%, O=C(NCc1ccc(F)cc1)c1c2c(nc3ccccc13)C(=O)N(C1CCCCC1)C2 2.36%, COc1ccc(OC)c(NC(=O)CCNS(=O)(=O)c2cccc3nsnc23)c1 -5.08%, CCOc1ccc2nc(S(N)(=O)=O)sc2c1 25.3%, CCc1ccc(NC(=O)CSc2nc3n[nH]c(C)c3c(=N)n2-c2ccc(C)cc2)cc1 -23%, Cc1cccc(CCNC(=O)C2CCC(CNS(=O)(=O)c3c(C)cc(C)cc3C)CC2)c1 (stereo unspecified) -24.7%, O=C(Cc1ccc(NC(=O)N2CCCCc3ccccc32)cc1)NCc1ccccc1Br -11.3%, COc1cc(Cl)c(C)cc1NC(=O)Cn1cc(S(=O)(=O)N2CCN(c3ccccc3F)CC2)c2ccccc2c1=O -5.47%, N#Cc1ccc(OC(=O)c2cc(-c3ccc(Cl)cc3)on2)cc1 4.03%, O=C(CCC1N=C2c3ccccc3N=C(SCC(=O)Nc3ccccc3F)N2C1=O)NCc1ccco1 (stereo unspecified) 8.35%, Cc1ccc(NC(=O)CN(C)S(=O)(=O)c2ccc3c(c2)n(C)c(=O)c(=O)n3C)c(C)c1 -15.5%, CCc1ccc(CN2C(=O)c3ccccc3C2C(=O)NC2CCCCCC2)cc1 (stereo unspecified) -18.9%, CCOc1ccc(-c2c(C)nn3c(C)c(C(=O)NCc4cccc(OC)c4)cnc23)cc1OCC -33.7%, CCc1ccccc1Nc1nn2c(=O)c3ccc(C(=O)NC4CCC(C)CC4)cc3nc2s1 (stereo unspecified) -21.6%, CC(=O)Nc1ccc(S(=O)(=O)NCc2ccc3c(c2)CCN3C(C)=O)cc1 -5.39%, COc1ccc(-n2ncc(C(=O)N3CCN(Cc4ccccc4)CC3)c2C2CCN(C(=O)OC(C)(C)C)CC2)cc1 -7.09%, CCOc1cc(C(=O)N(Cc2nc(-c3ccc(C)cc3)no2)C(C)C)cc(OCC)c1OCC -23.6%
